The record followed here is publication PMC12136788.

The other results are listed elsewhere or left out.

The labels stand for the following.
T1: UNK ZnF1-3 (human, UniProt Q9C0B0 31-174)
T1 sequence: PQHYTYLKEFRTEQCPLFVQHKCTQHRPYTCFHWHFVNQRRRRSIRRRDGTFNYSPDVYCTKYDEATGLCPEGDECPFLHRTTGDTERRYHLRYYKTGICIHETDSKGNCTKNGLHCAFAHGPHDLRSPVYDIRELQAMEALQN

B1: chrX:71549762:71549763:+_ENSMUSG00000019087_ENSMUST00000019231|mus_mus|mus_mus_mus_hu_False|18_78 (ssRNA)
RNA: GGGAGUUCUACAGUCCGACGAUCAAACCCGUGUACUUCUUAUUGUUAGCACAACAUUCCCCCCCAACGAUAACGACAGCCAAGCAGGACAGACAGUUAAGUAGUACUUCCACACUCCGCAAAUUCAGGAGCCCUAUAACCUUACAACAGAGGAUUGAGCAUCA
B2: chr8:104447970:104447971:+_ENSG00000164934_ENST00000297579|hu_hu|hu_hu_hu_mus_False|48_48 (ssRNA)
RNA: GGGAGUUCUACAGUCCGACGAUCAUACACUUCCCUGCUUCGGCUCUUGUCCACAGGAAAGAUUCUAAUAGACUUAUCAAAGCUGGCAGACACAAACUCCUUCCCAGUGGGAGAGUAGUCCACAUCAAGUACUGCAGACACGUGCAACAGAGGAUUGAGCAUCA
B3: chr2:202488911:202488912:-_ENSG00000155755_ENST00000286196|hu_mus|hu_hu_hu_mus_False|1_88 (ssRNA)
RNA: GGGAGUUCUACAGUCCGACGAUCAUUGAAACAUUUUUCAUAAUCUCAGAGAUGUUUUCAGCAUUAUGUAACAAAAGCUCAAUUGUAAAUACAUGUAUCUUAUAAAAAUACACUUAAAAACACGAGUGGGGAGCGCACAAAUACCAACAGAGGAUUGAGCAUCA
B4: 76452574_76459438_1178_CDS_ENSMUSG00000024563_ENSMUST00000168423|mouse|control|control (ssRNA)
RNA: GGGAGUUCUACAGUCCGACGAUCAUCCAAGCUGUGAUUAACAGGAGAGAGAGUAGUAGGAGACAGUUCAGCCGGAGAGCCUGUGUCCAUACUUUGGUUCAACUGUUGGUCACUUGUUUCUCCAUCUUCACUGAUAUAUCCAGGCAACAGAGGAUUGAGCAUCA
B5: chr11:68582865:68582866:-_ENSG00000110090_ENST00000265641|hu_hu|FALSE|FALSE (ssRNA)
RNA: GGGAGUUCUACAGUCCGACGAUCCUUGAAUCUGAUGAACUUCUUUUUCCAGGAAUGAAGUCCAGAGAGAUAGAUUUGUCUAAGAGCUUCAUGGCUCAGCCGCAGGUCAAUCCCGUCCGGAGUGACCGUGAACUGAAAGGCCACCAACAGAGGAUUGAGCAUCA
B6: chr2:191069868:191069869:-_ENSG00000198130_ENST00000359678|hu_hu|FALSE|FALSE (ssRNA)
RNA: GGGAGUUCUACAGUCCGACGAUCUAUAAAAACAGGCAGCAGGCUGGAUUUGGCCCACAUGCUGUAGAUUGCCAACCCAUGCUACAAAAUAUACCUUAAAAGCCUGUCACCUCAAAAUUUCAAAUCACUGCUUCCCAAAGACUUCAACAGAGGAUUGAGCAUCA
B7: chr11:2905015:2905016:-_ENSG00000129757_ENST00000380725|hu_hu|FALSE|FALSE (ssRNA)
RNA: GGGAGUUCUACAGUCCGACGAUCUUCAAAAUUUAAAAACAAAACCGAACGCUGCUCUGCGGCAGCCGCCGCCGGUUGCUGCUACAUGAACGGUCCCAGCCGAGGCCCAGCGCCCUUCCAACGUCCGCUGCCCCGGCAGGUUCCCAACAGAGGAUUGAGCAUCA
B8: chr10:33214929:33214930:-_ENSG00000150093_ENST00000302278|hu_hu|hu_hu_hu_mus_True|28_108 (ssRNA)
RNA: GGGAGUUCUACAGUCCGACGAUCAACAAGUUCAUUAAAAAACUCUCCUCUGUCAGUAAGACUAAGCACAUUUUUGUAGCUAAAUGGGCUGGUGCAGUUUUGUUCACUUGUGCAAGGAUUUCUUAGCUUUGCUGGGGUUGUGCUCAACAGAGGAUUGAGCAUCA
B9: chr12:39763582:39763583:-_ENSG00000139116_ENST00000544797|hu_mus|hu_hu_hu_mus_False|48_68 (ssRNA)
RNA: GGGAGUUCUACAGUCCGACGAUCCUCUAGGAACUGGGCAUUCACUUUGAAUUCAGGAGGGGGCAGCCCAUUUUUAAUCGCUGAGGUUUUUUUUUCUUCAAUACUCUUGAACAGGUGUCUAACAGCACGAGAGAUGAUGCCCUGCAACAGAGGAUUGAGCAUCA
B10: chr12:72996743:72996744:+_ENSMUSG00000034574_ENSMUST00000085299|mus_mus|FALSE|FALSE (ssRNA)
RNA: GGGAGUUCUACAGUCCGACGAUCAUAAAUGAAAUCCCCCGGCCGCCUCUCUUCCGUGGGGCCAUGGUUGAAUUCUCUCCUAUUUCUUGAUAUUUCUAUACUCUACUGGCCCCGGAGCUCCGGGAAGCAGCAGGAGGGCGCGCCCAACAGAGGAUUGAGCAUCA
B11: chr7:140404665:140404666:+_ENSG00000090266_ENST00000247866|hu_hu|hu_hu_hu_mus_False|8_38 (ssRNA)
RNA: GGGAGUUCUACAGUCCGACGAUCUGCUCCUACUCGUCCAGAGAGUUUACAGUGUCAGUCCUCGUCAUCAGGAGGGAUUCCCAGUUCUUCAUCUGUCCACUGGGAAGGAUCUGGAUAUGAAAAGUGACCCAGCACCUCAUCCGACAACAGAGGAUUGAGCAUCA
B12: 107340845_107340965_108_CDS_ENSMUSG00000020720_ENSMUST00000021063|mouse|control|control (ssRNA)
RNA: GGGAGUUCUACAGUCCGACGAUCGUCCACCGUGGCGCUGUAGUCCACUUCCAUCUUCACAAUGCGCCCAUCGGCCCGCUCCGAGCCACCGUCCGCCAUGGUCCCUGCCUAAGAGUCCCCUGCUGUACCCCAGGUUCGGCCACCCAACAGAGGAUUGAGCAUCA
B13: 92120666_92120786_3393_CDS_ENSG00000127980_ENST00000248633|human|control|control (ssRNA)
RNA: GGGAGUUCUACAGUCCGACGAUCAUCUGGAAGGAUCUCGGACAUCUCUAAAGAAACAAGGGACUGAUCUAAGCCACAUUCUCCAUCUCCAGCUGAAUCGUCAGAGCCACUGCUAUGGUUAAGAAAGACCAUUGAAGACAGACUCAACAGAGGAUUGAGCAUCA
B14: chr1:244870462:244870463:+_ENSG00000121644_ENST00000302550|hu_mus|motif|central (ssRNA)
RNA: GGGAGUUCUACAGUCCGACGAUCAUGAAAUUUACUCAAAGACAUGUAUCUUCACACAGAGAAUGUGACUCUCACACGGAUCACGUAUCUAAAGCUGCAGUCAGUACCUUGGAUGUUCCUAUGUUGUAUCCACUACUUACACAGCAACAGAGGAUUGAGCAUCA
B15: chr7:7679991:7679992:-_ENSG00000106399_ENST00000396682|hu_hu|motif|central (ssRNA)
RNA: GGGAGUUCUACAGUCCGACGAUCUGGGAUGAAUCUUUUCCAGCCUCCCUACGAAGCAGACAGGCUUGUCGAUGAAUUGAGCGGGCAUGCCGGCGUUGAUGCGCGACCUGGGCAAGUCCAUCAUGUCCACCAUGAUUAUGGUCCCAACAGAGGAUUGAGCAUCA
B16: chr17:65740002:65740003:+_ENSG00000130935_ENST00000581375|hu_hu|hu_hu_hu_mus_False|1_18 (ssRNA)
RNA: GGGAGUUCUACAGUCCGACGAUCAACAAAUCUUUCUUCCCUGGACGAACAGGAAGAUUCAUAUUAAAAAAAAUAUAUAUCCAUCAAGUUAGGUGUGGUGGCCACACCUUUACUCCCCACUUCAAUUGAGGUGGAUCCUCUAUUCAACAGAGGAUUGAGCAUCA
B17: chr17:64801638:64801639:+_ENSG00000154229_ENST00000413366|hu_mus|FALSE|FALSE (ssRNA)
RNA: GGGAGUUCUACAGUCCGACGAUCUAUAUAUAUAUAUACAUAUGUACACAUAUAUAGUAAAACCCUAGUUAAACGUGUAAAGUAGCCAUUCAUUUUUAAAAUUACAUCUACAUUAAAAAAUUAAUAUAUCUGAUAGAGUGCCAGCAACAGAGGAUUGAGCAUCA
B18: chr4:25749455:25749456:-_ENSG00000091490_ENST00000264868|hu_hu|hu_hu_hu_mus_False|68_68 (ssRNA)
RNA: GGGAGUUCUACAGUCCGACGAUCGCACUAUGACCUCUAGAAAAAUCCACAGGGGGAAAAAAUGUAAACCAAUUUACAAUGUUAUCGCCUUCCCUGUGUGUGGAGUGUUUGUCUCAAGGCUCCUUCUAGCUGCUGGAUUUGGGACAACAGAGGAUUGAGCAUCA
B19: chr8:95500983:95500984:-_ENSG00000164944_ENST00000437199|hu_hu|hu_hu_hu_mus_True|18_18 (ssRNA)
RNA: GGGAGUUCUACAGUCCGACGAUCAGAACACAUCUAUCGAGUAAAGGACCGUACAUGACGGCCUCUACCACUGCCUCCACUAACAAACUUUCCUCUCGAGCCUCCACUGCCGCUAUUUUGCACUAGCCAGGACGGUCCCAGGCCCAACAGAGGAUUGAGCAUCA
B20: chr5:145543945:145543946:-_ENSG00000133706_ENST00000545646|hu_hu|hu_hu_hu_mus_True|68_98 (ssRNA)
RNA: GGGAGUUCUACAGUCCGACGAUCCUGAACGGCCAGUGGCGGGAAAUAAUCAAGCCAGUGCUCUGCUUCAGAAAAUUUCACUAUGUCGUCAUCAGAGAGCCCAAGGGAUUUCAUAAUGUCCCACUGGUACUUAGAAGAUCCUGCCAACAGAGGAUUGAGCAUCA
B21: chr8:4269914:4269915:-_ENSMUSG00000002949_ENSMUST00000149827|mus_mus|FALSE|FALSE (ssRNA)
RNA: GGGAGUUCUACAGUCCGACGAUCCUUCUUGGCCUCAUCUCGGAACUUUUUUAUACUUUCUUUCAUCUCUUUGUUUUUGGCUAAUUCUUGUUUGAUGUUAUCUAGCAAGCCUGACAAAAACCCUUUUCUGCUCCCAGAAGAAUACAACAGAGGAUUGAGCAUCA
B22: 128608204_128610563_306_CDS_ENSG00000144231_ENST00000272645|human|control|control (ssRNA)
RNA: GGGAGUUCUACAGUCCGACGAUCAAGGUUGGCCAAACAGGCCAACUCAAACUUAUGAAGCUUUUUCUGGAGUAGCAAGCUACGAACACUGGCAAUGGUCUCUCUGUUUUUGAAACGACUGAAACGGGCUGUGUAGUUUAAUGUCAACAGAGGAUUGAGCAUCA

This assay has as its target T1, UNK ZnF1-3. Description: nsRBNS (natural sequence RNA bind-n-seq); RBNS binding buffer (assumed for nsRBNS): 25 mM Tris pH 7.5, 150 mM KCl, 3 mM MgCl2, 0.01% Triton X-100, 500 ug/ml BSA, 20 U/ml SUPERase-In, 4 C; UNK is unkempt and MSI1 is Musashi-1; names of the RNAs are library labels; protein concentration not given here; high values mean tight binding.
Take B1: the binding signal turned out to be 1.78 enrichment R.

B2: the binding signal is 1.05 enrichment R.

B3 displayed a binding signal of 1.24 enrichment R. As to B4, the binding signal was 1.18 enrichment R. In turn, B5 had a binding signal of 0.441 enrichment R. As for B6, the binding signal was found to be 1.68 enrichment R. As to B7, the binding signal came out at 0.975 enrichment R.

In the case of B8, the binding signal stood at 0.992 enrichment R. Regarding B9, the binding signal is 1.52 enrichment R. In the case of B10, the binding signal was 0.467 enrichment R.

As to B11, the binding signal is 1.35 enrichment R. With B12 the figure was 0.908 enrichment R; with B13, 1.27 enrichment R; with B14, 0.518 enrichment R. As to B15, the binding signal was found to be 0.879 enrichment R.

For the molecule B16, the binding signal was determined as 0.808 enrichment R. With B17 the figure was 2.01 enrichment R; with B18, 0.98 enrichment R; with B19, 1.12 enrichment R. B20 yielded a binding signal of 1.26 enrichment R.

B21 registered a binding signal of 0.708 enrichment R. The same measure for B22: 0.928 enrichment R.
